According to a collection of fitness landscapes (doi:10.1016/j.celrep.2020.107928):
In all, about 81,000 sequences were measured (“one-hybrid fitness for binding parS DNA”: median about -0.17, highest 2% from about 0.51 on). This is one part of the list.

B1: Caulobacter ParB omega fusion; a variant is named by its letters at X, in order, B8GW30 (parent)
chain: MESVVVGEPGMSEGRRGLGRGLSALLGEVDAAPAQAPGEQLGGSREAPIEILQRNPDQPRRTFREEDLEDLSNSIREKGVLQPILVRPSPDTAGEYQIVAGERAWRAAQRAGLKTVPIMVRELDDLAVLEIGIIENVQRADLNVLEEALSYKVLMEKFERTQENIAQTIGKSXSHVANXMRLLXLPDEVQSYLVSGELTAXHARAIAAAADPVALAKQIIEGGLSVRETEALARKAPNLSAGKSKGGRPPRVKDTDTQALESDLSSVLGLDVSIDHRGSTGTLTITYATLEQLDDLCNRLTRGI

Variants of: B1
Assay: one-hybrid fitness for binding parS DNA (scaled: cognate 1, non-cognate 0); higher = stronger binding
Settings: with parS DNA site
Procedure, shortened: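 The reporter was HIS3, with the binding site 19 bp from the promoter, in E. coli USO used for bacterial one-hybrid selection of Caulobacter ParB libraries with four specificity codons randomised. Growth was on M9 lacking histidine, with 0.1 mM IPTG and 5 mM 3-AT, for 48 hours at 37°C. Illumina sequencing covered plasmids before and after selection; three replicate libraries were pooled and variants with under 10 reads dropped. A fitness score is the log change in variant-to-wild-type read ratio, rescaled to the cognate and non-cognate references.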

one-hybrid fitness for binding parS DNA, 0.436:
RATN

one-hybrid fitness for binding parS DNA, 0.397:
RHDY

one-hybrid fitness for binding parS DNA, 0.26:
RYYW

one-hybrid fitness for binding parS DNA, 0.201:
THFP
TMWP

one-hybrid fitness for binding parS DNA, 0.209:
RCWL

one-hybrid fitness for binding parS DNA, 0.955:
RINC

one-hybrid fitness for binding parS DNA, 0.269:
YDKE

one-hybrid fitness for binding parS DNA, 0.383:
IDQC

one-hybrid fitness for binding parS DNA, 0.354:
RHVY

one-hybrid fitness for binding parS DNA, 1:
RCHC

one-hybrid fitness for binding parS DNA, 0.206:
RRYM

one-hybrid fitness for binding parS DNA, ≤ 0.2:
WTPE
YCTS
SQSL
YKTG
YRTL
HHDT
FRMG
PFPC
AVLF
AMGP
YDNT
LHPV
KNQM
WYAG
QMTA
PRDK
QYQK
TMRD
RMND
DYRL
WRIF
PTLE
DQSS
VIMT
RVAD
NLPL
VRGV
STVL
ELAH
HCSL
ISYK
VLPY
RWQL
AQGS
VRSM
NWLG
MFTE
CCVS
WRGW
QCNM
VNPA
NCLY
PTYW
ICPL
RQAQ
GCFT
PQYI
IMVS
RLVD
FAWT
NNHG
NGLK
VYMM
AFCT
LERC
QELY
LQTV
LSMI
RQFW
SPWL
YRAD
YPAL
IPHT
PVKF
DGLG
VIIF
NRSY
EYDS
GWLW
MIRG
VTRA
ASRW
IRKE
KGQM
NGEC
MSSK
LTGI
ELIG
PPNR
AHSC
SSAS
QGNV
VVNV
SWRE
AVEY
LYCD
KNSV
KEFG
LWPM
QKPT
SIKR
ANQC
TQIL
FDPE
HFLG
GPMT
QFRT
SSGF
SITR
KKFS
ESIC
VWQC
MAHE
INRC
QRRW
AERF
TTPQ
LYCH
NRDS
GYGR
HPSV
QNIR
CKPI
KNGG
MTRR
KHSV
RAPH
SGLG
RKYD
RKRI
HTGG
PPKG
DGQV
KPLT
ANVR
QQQN
GWHG
GYCS
YKRV
KVQR
LCQT
FAPW
SMCR
THLA
GNYT
TTSC
PALT
IFVS
RDPV
SAQS
RGDP
FHFS
WYFL
LWQG
DEKS
DKMS
AVPS
SHDT
SGLF
SKLY
ADNY
LLID
AGEG
DRRH
PHIH
TPSG
GHVR
DQFG
ACSG
HPIR
SKAL
FHLG
PEPV
VDPE
CVVG
PQQI
QGDV
KDVR
RKLI
LSVA
EATG
WLLY
HRTR
AHCT
LLGG
MNAL
YQEC
KVHL
ERHY
CFSG
NRHD
YDYT
HMAS
TMTA
IFSF
MQSN
WLFI
CSSS
LDNI
GDRY
NMCC
APAV
MLAW
VIKE
QVHD
YFSC
VNGF
SFKN
TDNC
TQMR
RPTM
GEPR
FTVA
TQHC
VYIC
TPWT
QKVL
HHSK
KMGD
KMGS
KNDS
TDVI
YLTW
HSSE
GQER
PTRC
ITDG
PSVP
QRTW
AELY
FASK
IKWT
TGLR
NDLG
LSWS
ADYM
AGSW
QENT
PYNE
FGDM
CFNG
PTDF
MWIV
LYMD
KLVA
RIML
LCCS
TNKT
WGMR
ERHC
RNNI
CMPG
GFRL
VPRK
HEDP
VFVD
RPSH
YPCV
QYAK
IQQS
WYRT
LFMG
KYTL
YDDT
QRKH
HNRN
QTKY
SFSL
MEMS
ERFR
ISIL
GHHG
PPTC
EYLG
QELV
TRGR
AYPR
VNWS
TETS
QEGT
RLDI
RGEV
PVRK
FHLR
QYRC
LSAM
TSCD
CKTA
SGNP
RACE
MQNG
YTPL
WYPR
VATN
LPSR
PYRN
KRMA
QPKH
KTLV
TGGY
NMHD

one-hybrid fitness for binding parS DNA, 0.957:
RSNC

one-hybrid fitness for binding parS DNA, 0.738:
RRAG

one-hybrid fitness for binding parS DNA, 0.365:
RHKN
